Experimental data published in the supplement of paper PMC11417369.
± gives the standard deviation of the averaged measurements. Some of the results follow.

Each sequence was assayed on PfAP2-LT AP2 domain (GST-tagged) (assay: gcPBM binding intensity (ln(normalized median fluorescence intensity)); higher = stronger DNA binding).
Method in brief: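 Binding intensity values are the highest Masliner-normalised natural-log median intensity among replicate spots of either probe orientation. The binding step lasted 1 h in 1× PBS with 1% milk, 0.2 mg/ml BSA, 0.5% salmon testes DNA and 0.03% Triton X-100, using GST-tagged P. falciparum DNA-binding domains expressed in E. coli on an Agilent 4 × 180k array of primer-extended double-stranded 36-bp intergenic genomic probes plus negative controls. Alexa488 anti-GST antibody and a 488 nm scan detected bound protein.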

| Sequence | gcPBM binding intensity (ln) |
| --- | --- |
| ATATATATATATATATGTACATATTTCTCCATTTTT [XGTACX_site2869] | 9.61 ± 0.39 |
| CATATTTTTATAAATTGTACGTATATTATATATATA [XGTACX_site1816] | 8.59 ± 0.33 |
| TGCAATTGTAAAGGCGCACACATATATATATATATA [CACACA_site4894] | 10.2 ± 0.13 |
| GTTTTTTATAATTGTAGTACAAGAAGATATTTTTAT [XGTACX_site5443] | 8.36 ± 0.36 |
| AAACCGTGGGAGCACACACACACACCGACACATATA [CACACA_site4338] | 10 ± 0.28 |
| GCATTGTCCATGCGCACACACTACTAGAATAATATG [CACACA_site5932] | 9.28 ± 0.37 |
| ATATATCAATATAAAAGTACAAACAAAAAATAATCA [XGTACX_site7559] | 8.95 ± 0.42 |
| GATATATACTCCATCACACACCAAAAAGAAAAAAGA [CACACA_site7242] | 9.11 ± 0.45 |
| TCCATTTATAAATTAGCATGCAATCTATGTCTGATA [TGCATGCA_site1045] | 8.7 ± 0.33 |
| ATCAAAAGAAAACACACACACATACAGATATATATA [CACACA_site5974] | 9.88 ± 0.29 |
| AATTAATGGGTACATACACACATATATACCTACATA [CACACA_site4572] | 9.07 ± 0.33 |
| TAAATACTAATATGTACACACATATAGATATAGATT [CACACA_site7247] | 8.96 ± 0.38 |
| GAATAAGATAGATATACACACCATTATAAATATAAA [CACACA_site5392] | 8.99 ± 0.45 |
| GCTAAAAGTATATGCACACACATATATATGCACATA [CACACA_site1635] | 9.47 ± 0.38 |
| TTTTGTACTTCATGCGTGCACAGAAATATATTATAT | 8.82 ± 0.36 |
| TTAAATAGATAAACTAAACACACAAAAAAAAAAAAA [CACACA_site8308] | 8.71 ± 0.47 |
| TGTGCAAGATTTTTCTGTACATATATATAAATATAT [XGTACX_site1796] | 8.57 ± 0.42 |
| AAATATTCTTGTTTAATACACACTGTAGTATTATAT [CACACA_site433] | 8.94 ± 0.4 |
| ATCATTCTTCATTTGTCACACATGATAAAAATATAT [CACACA_site4953] | 8.77 ± 0.4 |
| CTATTATAATATTTTACACACCATGTAAAATATATA [CACACA_site3206] | 8.69 ± 0.37 |
| TTTTTTAAGTAATGAAATGATTTTCTTATAGAATAA [GTGCAC_negctrl_site395] | 7.96 ± 0.36 |
| CATTAACATTTTATTACACACAATAATTTATAAGTA [CACACA_site4083] | 8.69 ± 0.42 |
| ATTTATATTTGTATTTGTACTTATATTTATATTTAT [XGTACX_site1540] | 9.07 ± 0.47 |
| GCTTTTGTCATGTGCACACACGTATATATTATATAT [CACACA_site6146] | 9.73 ± 0.45 |
| AAAAAGGTTAAGGTAGTGCATAATAAAGAATATTAA | 8.76 ± 0.56 |
